The supplement of paper PMC3334620
The full ranking holds about 33,000 sequences; the median of “E-score (-0.5 to 0.5)” is about -0.012, and the highest 2% start at about 0.27. The list shows a part of the results.

These sequences were tested against T1, Vhr1 (UniProt P40522) (assay: PBM E-score (8-mer binding enrichment) (E-score (-0.5 to 0.5)); higher = stronger / more preferred TF binding; most listed sequences are background and not binding sites). Settings: protein concentration: 200 nM; construct: GST-full length.
T1 sequence: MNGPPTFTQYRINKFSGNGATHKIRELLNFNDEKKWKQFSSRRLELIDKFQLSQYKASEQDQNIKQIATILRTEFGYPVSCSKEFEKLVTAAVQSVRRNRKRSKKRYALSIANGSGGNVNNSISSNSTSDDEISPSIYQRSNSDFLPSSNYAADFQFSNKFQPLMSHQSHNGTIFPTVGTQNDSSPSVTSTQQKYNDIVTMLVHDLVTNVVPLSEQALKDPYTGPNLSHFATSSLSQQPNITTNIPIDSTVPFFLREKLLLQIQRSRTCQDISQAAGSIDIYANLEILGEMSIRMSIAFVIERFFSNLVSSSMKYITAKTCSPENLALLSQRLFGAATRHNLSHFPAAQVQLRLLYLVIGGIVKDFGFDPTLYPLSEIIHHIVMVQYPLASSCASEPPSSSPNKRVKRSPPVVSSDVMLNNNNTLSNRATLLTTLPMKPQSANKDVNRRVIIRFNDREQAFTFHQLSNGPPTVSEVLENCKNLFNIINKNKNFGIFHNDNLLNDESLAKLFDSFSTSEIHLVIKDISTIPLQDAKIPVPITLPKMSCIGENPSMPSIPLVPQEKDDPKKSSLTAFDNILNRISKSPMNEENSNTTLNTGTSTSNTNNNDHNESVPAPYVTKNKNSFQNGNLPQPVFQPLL
Outline: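 For each ungapped eight-base word taken together with its reverse complement, the Universal PBM Analysis Suite assigned an E-score. Binding data came from GST-tagged yeast transcription factors, applied at about 100-200 nM, on universal all-10-mer Agilent arrays made double-stranded by primer extension. Fluorescent anti-GST marked bound protein, and scans were normalised with masliner.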

| Sequence | PBM E-score |
| --- | --- |
| AGCCATCG | 0.15 |
| GACTGATC | 0.119 |
| AAGCCCGC | 0.0323 |
| ACGAGCCA | 0.225 |
| GATTGACC | 0.085 |
| ATACCTCG | 0.0872 |
| CCTATCGC | -0.151 |
| AAGCGGGC | -0.121 |
| AAGTCGCA | 0.173 |
| CCATAAGC | -0.18 |
| AGACGGCA | 0.0868 |
| ATGGCGCC | -0.0318 |
| AATCGCGA | 0.26 |
| TATGTCAA | -0.0148 |
| CCGATCCG | 0.13 |
| CAACATTA | 0.0457 |
| ATACCAAG | 0.126 |
| ACGTCGAC | 0.155 |
| ACCACTCT | -0.0166 |
| ACTCCTAC | 0.19 |
| AGACTCGG | 0.00302 |
| CTGCCCAC | -0.116 |
| GCATAAGC | -0.124 |
| CCGTGGAA | 0.0366 |
| CCTGGCAG | 0.0237 |

| Sequence | PBM E-score |
| --- | --- |
| CCCTAACC | -0.022 |
| TATGCTGA | 0.0447 |
| ACTGCAAA | -0.119 |
| TGCGAGAA | -0.0632 |
| CCTACTAA | 0.0375 |
| ACTTATCG | -0.0707 |
| CCGGTTCC | -0.0881 |
| CGAGCCCG | 0.167 |
| ACGAGGAG | -0.113 |
| AAGTGGGC | -0.00962 |
| AAAAGTTT | -0.116 |
| CGACCTCA | 0.018 |
| CCCTACGA | 0.051 |
| ATGAACCA | 0.294 |
| ATCAGCAT | 0.123 |
| CCCAGAGA | -0.101 |
| AATATACC | 0.121 |
| ACCATACC | 0.205 |
| CATGTGTC | 0.22 |
| TAAATATA | 0.207 |
| ACTGGCCT | -0.135 |
| GCTTGGCA | -0.106 |
| ACGACAAG | 0.0631 |
| GACAGTCC | -0.0807 |
| CTTCGAGA | -0.201 |

| Sequence | PBM E-score |
| --- | --- |
| GTCAAAAA | -0.206 |
| AAAGTGAC | 0.0798 |
| CCTAGTCA | 0.309 |
| AGGTACGG | -0.18 |
| ACAGGCGG | -0.0294 |
| CAGAGTAG | 0.0847 |
| ATGACATG | 0.0843 |
| CGCTGATA | -0.24 |
| ACGGCTGG | -0.0635 |
| TAACTGAA | 0.0328 |
| TTAGAAAA | -0.244 |
| ACTTTTCG | -0.158 |
| CTGAGCTA | -0.184 |
| GCAGTGCA | 0.0468 |
| ACCACGGA | -0.0454 |
| CACTTGTA | -0.0274 |
| GTCAGCTA | 0.125 |
| GTATGGCA | 0.0524 |
| CAGTATCA | -0.0094 |
| ATGCCACG | -0.178 |
| CAGTTCAC | -0.0289 |
| AGAGGCAC | -0.0437 |
| CACACAAA | 0.124 |
| GTGCGCGA | 0.0151 |
| ATTAACAG | -0.00382 |

| Sequence | PBM E-score |
| --- | --- |
| ATATTGTG | 0.198 |
| ATGCAGAA | -0.0273 |
| GCAGTAAA | -0.202 |
| AGTTTTCC | -0.0724 |
| AGCTTAAC | -0.226 |
| GCTGGCTA | -0.00876 |
| CCAGCGGG | 0.0637 |
| ATATGTAG | 0.0522 |
| AAAACACG | -0.0652 |
| ATGTGCAG | -0.105 |
| CCTAGGGC | -0.231 |
| ATTATTAC | 0.123 |
| CATGAATG | 0.231 |
| ATATCATG | 0.152 |
| CCTTCTAA | -0.156 |
| CGAATACA | 0.116 |
| CTATGCTC | -0.0112 |
| ATTAGGGA | -0.0413 |
| AAACGCTG | -0.293 |
| AAGGTGTC | 0.0328 |
| ACGGTAGT | 0.125 |
| AATAGGGG | 0.00726 |
| CGCAGGAG | 0.089 |
| GCCCACAC | 0.069 |
| TGCGGCAA | -0.104 |

| Sequence | PBM E-score |
| --- | --- |
| GTAACCAC | -0.00779 |
| CATACTTC | -0.111 |
| CTTCCTTC | -0.215 |
| AGAAAGAT | -0.0756 |
| CAGTGAGA | 0.00435 |
| TCCAAACA | -0.19 |
| CGCTTTTC | -0.123 |
| GACAAGAC | 0.16 |
| AACGTTGT | -0.0929 |
| CGAAGACG | -0.113 |
| CGATGTGA | 0.184 |
| ATACCTGG | -0.129 |
| ATCTTGAA | 0.00637 |
| AGGGTACA | 0.0556 |
| ACAGGGTC | 0.133 |
| CGTCTTAA | -0.254 |
| GTTTATGA | -0.0401 |
| CTCTGGCA | -0.0993 |
| CTTTTACC | -0.0677 |
| TTCTTCAA | -0.189 |
| AATCAGCC | 0.14 |
| TAAGATAA | -0.0467 |
| CTGTTGTC | 0.00208 |
| AAAACGGC | 0.0186 |
| CGGAACAA | -0.0228 |

| Sequence | PBM E-score |
| --- | --- |
| CGTGGGCC | -0.192 |
| AGCAAAAT | -0.0763 |
| CTGGACGA | -0.0855 |
| AGCTTCTC | -0.00946 |
| GGTGGCGA | 0.0497 |
| CACATACC | 0.0701 |
| GAACTTAC | -0.175 |
| GTCACGAA | 0.252 |
| CGGACAAA | -0.101 |
| AGTCGGTC | 0.0847 |
| AATGTTAC | -0.114 |
| CGGTCTTA | -0.172 |
| CAAAATAA | 0.0241 |
| ACGTCCTC | -0.207 |
| AGATACGC | 0.132 |
| CACATATC | 0.194 |
| ATCTGAGA | -0.124 |
| ATTCTACC | -0.0608 |
| GATGACCA | 0.13 |
| ATACAAGC | 0.143 |
| CGACTGGC | 0.134 |
| ACTTTATA | -0.108 |
| ACATGTGA | 0.0459 |
| CAGGGTGG | 0.213 |
| CTGTTGAC | -0.194 |

| Sequence | PBM E-score |
| --- | --- |
| GTCAGGGA | 0.182 |
| GCTCGGTA | -0.0594 |
| AGCATAAC | -0.0434 |
| TACGGATA | 0.0669 |
| ATTGACTC | 0.3 |
| ATGTTCGA | 0.0207 |
| CTTTGTCA | -0.0991 |
| ACCGCAAG | 0.01 |
| GCTTGAAA | -0.118 |
| GCGCTTCC | -0.104 |
| ATAACGTC | -0.156 |
| GGCAGACA | -0.0678 |
| GCCCCAAA | -0.169 |
| TCGCTTCA | -0.172 |
| AATACACC | 0.0607 |
| CGACCTAG | 0.147 |
| GATCATAC | 0.114 |
| AGGAATGG | -0.0959 |
| AGACTTCC | -0.161 |
| ACGTGCCC | -0.0998 |
| GCCGCCCA | 0.128 |
| GACTGCCA | 0.168 |
